Experimental data taken from the supplement of paper PMC11417369.
± gives the standard deviation of the averaged measurements. Some of the results follow.

These sequences were tested on PfAP2-G AP2 domain (GST-tagged) (assay: gcPBM binding intensity (ln(normalized median fluorescence intensity)); higher = stronger DNA binding).
Outline: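 Plasmodium falciparum DNA-binding domains carrying a GST tag were expressed in E. coli and applied for 1 h, at about 25 μg on average, to an Agilent 4 × 180k array. The array held primer-extended double-stranded 36-bp intergenic genomic probes together with negative controls, and binding took place in 1× PBS with 1% milk, 0.2 mg/ml BSA, 0.5% salmon testes DNA and 0.03% Triton X-100. An Alexa488 anti-GST antibody detected bound protein, and the array was scanned at 488 nm. Binding intensity is taken as the highest Masliner-normalised natural-log median intensity across replicate spots of either probe orientation.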

Sequence | gcPBM binding intensity (ln)
TTTTAAATAATACATACATGCATATATACACATATA [TGCATGCA_site8] | 9.92 ± 0.042
TGAAACCATAAAGAATGTACACAGCGGTATAAGTTA [XGTACX_site674] | 11.1 ± 0.59
TTTTGGAATTTTAGCTGTACTTTTCCTATTTTGTAT [XGTACX_site7679] | 11.6 ± 0.94
TTCTTTTCTTCTACATGTACAAATATTATATATATA [XGTACX_site2996] | 10.9 ± 0.65
TTAGGTGTATATAATTGTACATTTTGGAAATTATAC [XGTACX_site5492] | 10.8 ± 0.5
ATCTTTCATCTACCAAGTACAAATTACTTTTTTTTT [XGTACX_site7001] | 10.8 ± 0.31
TATATAACTGTCTTCACACACACATATAAATAAATA [CACACA_site7317] | 10.1 ± 0.22
TATTTCACAACTTGTCGTACATTAATTGTATTATTT [XGTACX_site997] | 11.4 ± 0.86
ATTATTATTAATAGTACACACTATGGCATTTCAATA [CACACA_site5388] | 11.2 ± 0.8
AGCTCGGAAAAATTAGCATGCAAAAAAAAAAAAAAA [TGCATGCA_site658] | 9.65 ± 0.28
TCTTATTTAAAAATAGCACACATTATGTATATATAT [CACACA_site2822] | 10 ± 0.11
TATTTATATTTATATACACACTATATAACTCAAACA [CACACA_site6611] | 9.93 ± 0.11
AATTGTTCGATATATGCACACAGTTTTGTTATTTTT [CACACA_site1615] | 10.05 ± 0.099
TTTTTTAAAATATATATAATGAATTTTTTTTTTTTT [CACACA_negctrl_site1577] | 9.45 ± 0.22
AAAGAAAAAAAAAAAAGTACATAAATATAAAAAGAA [XGTACX_site6753] | 11.5 ± 0.89
ATATATATATATATATGTACATATTATTAATAATAT [XGTACX_site6667] | 11.2 ± 0.74
CTAGCAAATACATACACACACACACGGATACCTATA [CACACA_site7609] | 10.2 ± 0.16
TATATAACTTTATTTTTCTTTACTTATTTTATTTTA [GTGCAC_negctrl_site66] | 9.64 ± 0.3
GTATAATATGAACACACACACACACCCAAAAAAAAA [CACACA_site5152] | 10.4 ± 0.4
TTATGGAACCCCATTCGTACATAAATATTTTATATA [XGTACX_site7112] | 11.2 ± 0.79
TTTTTTTTTTTGTGAGTGCACGTATGAAGAGAAAAA | 10.9 ± 0.8
ATACATATTAACAAGGTGCAAATGGATTTCATAAAA [GTGCAC_site9775] | 10.1 ± 0.18
TTTTTTATTTTAATGTATTATTTTTATGTAATATAT [GTGCAC_negctrl_site391] | 9.62 ± 0.085

Sequence | gcPBM binding intensity (ln)
GATATGATTACCTTATGGTGTTTTTGATGGATAGTT [CACACA_negctrl_site1504] | 9.98 ± 0.057
TTTTATTATTTATATACACACTTGCTGAAATGTTAT [CACACA_site5919] | 10.05 ± 0.071
CGGTATTTTTTAATTTGTACGCATATACAATAATTA [XGTACX_site8603] | 11.5 ± 1.1
TATAATAATAATGATAGTACGTATGAGTTCAAAAAA [XGTACX_site608] | 11 ± 0.59
TATATACAAATATGCTGTACAAAAAAAAAAAAAAAA [XGTACX_site4732] | 10.7 ± 0.95
TATGTTTAAATATATTGTACGCACGTATGTTTTTAA [XGTACX_site1108] | 11.4 ± 0.82
TTTATGCACGCGTGCACACACATATGAAAAAAGGTA [CACACA_site3315] | 10.8 ± 0.5
ATATATATATATATATGTACATATTCATCTTATTCT [XGTACX_site1537] | 11.2 ± 0.54
AATACCTTTTAATAATGTACAAACAAAAATTAGAGA [XGTACX_site6850] | 10.9 ± 0.33
TATATATTAAAAATAGTGCAAAATAATATATATATA [GTGCAC_site9716] | 10 ± 0.37
TTTTATTTATATTATACACACAAGGAAAAAAAAAAA [CACACA_site7690] | 10.2 ± 0.26
ACAAATAAATATATATGTACATATATTTTTTTATTT [XGTACX_site2989] | 11.2 ± 0.64
ATGTCTATATATTAAGGTACACATATATGCTATTCA [XGTACX_site6008] | 11.1 ± 0.57
GTTTAACTGTTTTATACACACAATGTATCCAATAAA [CACACA_site5612] | 10.2 ± 0.28
ATATTAATTTTTATTACACACTCTCAATTTTTATTT [CACACA_site58] | 9.94 ± 0.014
AAAATATACATAAACACACACAAAACGTTTAAGAAA [CACACA_site1071] | 9.935 ± 0.007
AAAAAAAAAAAAAAAGTACACACTTTTGCGTACATG [CACACA_site3097] | 12.3 ± 1.4
TTTTAGTTAATTCATGCATGTAAAGTTTTATTTATA [TGCATGCA_site252] | 9.69 ± 0.21
TTATGCGTTTGCAAAAGTACATATCTATTATTTTTA [XGTACX_site7609] | 11 ± 0.86
TTATTTTATTTTGAAGCATGCTTTTTGCTGTGATAA [TGCATGCA_site278] | 9.8 ± 0.38
AAATAATATTTATACACACACACATATTTATATACA [CACACA_site6403] | 10.04 ± 0.035
TTTTTTTTTTTTTGTTGTACCCATCATATATACATA [XGTACX_site4342] | 11.2 ± 1
